Experimental findings from PubChem BioAssay AID1240 (Sanford-Burnham Center for Chemical Genomics, 2008) are described below.

Where “and” joins values, the source holds several entries; their conditions need not be identical. Identical values can stand only once. Out of some 50,000 compounds screened, about 800 (1.6%) showed an effect of 50% or more. The list shows a part of the results.

This experiment addresses Bcl-2-like protein 10 (Homo sapiens) (UniProt Q9HD36). The experiment is described as follows: Phenotype converters, Bcl-B/TR3 peptide binding displacement, primary biochemical FP (AID 1240).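 Note: 0% = Bcl-B with tracer peptide and DMSO and 100% = tracer peptide lacking Bcl-B.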 As to conditions: GST-Bcl-B / FITC-TR3 peptide fluorescence polarization; stronger effect = higher value; compound at 3.75 mg/L. On the technique in general: In fluorescence polarisation assays a small probe gives low polarisation when free and higher when bound to something large.
Sequence of UniProt Q9HD36 (Q9HD36 whole entry, looked up): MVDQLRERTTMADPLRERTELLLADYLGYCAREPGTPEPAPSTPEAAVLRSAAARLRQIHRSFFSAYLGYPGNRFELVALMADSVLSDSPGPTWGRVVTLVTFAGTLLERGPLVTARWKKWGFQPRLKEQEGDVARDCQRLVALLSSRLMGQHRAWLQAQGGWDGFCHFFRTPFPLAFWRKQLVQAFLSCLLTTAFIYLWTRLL
Consider `CN(C)/C=C/C=C1C(=O)OC(C)(C)OC1=O`, for which the displacement was determined as 0.3%.

In the case of `Cc1ccc(N2C(=O)C3C(C2=O)C3(c2ccccc2)c2ccccc2)c(C)c1` (stereo unspecified), the displacement was -13.6%. For `COc1ccc(C2OCC3(CO)C(C)C=C(C)C2C3C)cc1` (stereo unspecified), the displacement is -2.4%. In the case of `O=C(c1ccc(Br)cc1)N(Cc1ccccc1)c1cccc([N+](=O)[O-])c1` it was -11.1%; in that of `CCN1/C(=C/C(C)=O)Sc2ccccc21`, 19.9%. As to `O=c1/c(=C/c2cccc([N+](=O)[O-])c2)sc2nc3cc(Br)cnc3n12`, the displacement is -2.3%. Turning to `COc1ccc(-n2c(NNC(C)=O)nc3sc4c(c3c2=O)CCCC4)cc1`, the displacement was 1.1%. In the case of `CC(C(=O)O)N1C(=O)/C(=C\c2ccc(F)cc2)SC1=S` (stereo unspecified) it was 8.1%. For `COc1cc(/C=C2/SC(=S)N(CC(=O)O)C2=O)ccc1OC(=O)c1cccc(C)c1` the value was 14.9%; for `CCOc1ccc(N(CC(=O)Nc2ccccc2Br)S(C)(=O)=O)cc1`, -0.1%. In the case of `CCCOc1ccc(C(=O)Nc2cc(Cl)cc(Cl)c2)cc1` it was 9.6%; in that of `Cc1cc(C)n(-c2cc(-c3ccccc3)nc(-c3ccccc3)n2)n1`, 5.8%; in that of `CSc1nnc2c(n1)OC1(CCCCC1)Nc1ccccc1-2`, 3.1%.

In the case of `CN1CCc2c(sc3c2C(=O)NC(c2ccc4ccccc4c2)N3)C1` (stereo unspecified), the displacement was 83%. In the case of `CCOc1ccc(N2C(=O)NC(=O)/C(=C/c3ccc(-c4ccccc4[N+](=O)[O-])o3)C2=O)cc1` it was 3.8%; in that of `N#C/C(=C/c1ccc(-c2ccc(S(N)(=O)=O)cc2)o1)C(=O)Nc1ccccc1`, -0.4%. For the molecule `COc1ccc(C2/C(=C(\O)c3ccccc3)C(=O)C(=O)N2c2cccc(C)n2)cc1` (stereo unspecified), the displacement is 10.4%.

As to `CN(Cc1ccccc1)C(=O)c1cc2nc(-c3ccc(Cl)cc3)cc(C(F)(F)F)n2n1`, the displacement is -8.1%. Take `COc1ccc(N(CC(=O)Nc2ccccc2Br)S(C)(=O)=O)c(OC)c1`: the displacement is -1.2%. As for `O=C(Nc1sc2c(c1C(=O)N1CCCCC1)CCCCC2)c1ccncc1`, the displacement stood at 13.5%. For `COc1ccc(CSc2nc3sc4c(c3c(=O)n2Cc2ccccc2)CC(C)(C)OC4)cc1` the value was -6.8%.

As for `Cc1ccc2c(c1)NC(c1ccc3c(c1)OCO3)C1=C(CC(c3ccccc3)CC1=O)N2` (stereo unspecified), the displacement was -6%. For `COc1ccc(Br)cc1C(=O)N1CCN(c2ccc([N+](=O)[O-])cc2Cl)CC1` the value was 5%. In the case of `CCOc1ccc(N/C(C)=C/C(=S)Nc2ccccc2)cc1` it was -14.7%. `COc1ccccc1OCCCN1CCCC1`: the displacement was 4.2%. In the case of `CC1(C)CC(=O)c2sc(NC(=O)c3ccccc3Cl)nc2C1` it was -12.5%; in that of `COc1ccc(CCN2C(=O)CC(C(=O)O)SC2=Nc2cccc(C(F)(F)F)c2)cc1OC` (stereo unspecified), -8.3%; in that of `CCOc1ccc(NC2OC(=O)c3c2ccc(OC)c3OC)cc1` (stereo unspecified), 6.5%. For `CC(=O)NC(c1ccc(C)cc1)c1c(OC(C)=O)ccc2ccccc12` (stereo unspecified) the value was 5.2%; for `O=C(NCCOc1cccc2ccccc12)Nc1cccc2ccccc12`, -15.1%.

Turning to `COc1ccc(C2/C(=C(/O)c3ccccc3)C(=O)C(=O)N2c2cccc(OC)c2)cc1` (stereo unspecified), the displacement is 4.1%. On to `CC(C)c1ccccc1OCC(=O)Nc1cccc(C(F)(F)F)c1`, for which the displacement amounted to 13.1%.

For `CC1=C(C(=O)OCCOc2ccccc2)C(c2ccc(C(C)C)cc2)C2=C(CCCC2=O)N1` (stereo unspecified), the displacement is -0.4%. Take `COc1ccc(OC)c(N2C(=O)NC(=O)C(=Cc3ccc(C)o3)C2=O)c1`: the displacement worked out at 12.2%. As to `O=C(Nc1cccc(Cl)c1)N1CCN(C/C=C/c2ccccc2)CC1`, the displacement is -2.9%. In the case of `COC(=O)c1c(NC(=S)Nc2ccccc2)sc(Cc2ccccc2)c1C` it was 29.5%; in that of `COC(=O)/C(=C/C(=O)c1ccc(C)cc1)Nc1c(C)n(C)n(-c2ccccc2)c1=O`, -5%; in that of `CC(=O)c1cc(CN2C(=O)c3ccccc3C2=O)cs1`, -8.8%. Regarding `Cc1cc(C)cc(N2C(=O)NC(=O)/C(=C\c3c(F)cccc3Cl)C2=O)c1`, the displacement was -7.7%. For `Cc1ccc(/C=N/Nc2nn[nH]n2)c2nsnc12` the value was -5.4%; for `COc1ccc(C(=O)CSc2ncn(-c3ccccc3)n2)cc1`, 14.1%. With `O=C(Nc1cc(-c2nc3ccccc3s2)ccc1Cl)c1ccc([N+](=O)[O-])cc1`, the displacement is 90.8%.

With `COc1ccc(/C=N/Nc2nncc(=O)[nH]2)cc1OC`, the displacement was -2.1%. Consider `CN(N)c1nc(N2CCCCC2)nc(N2CCCCC2)n1`, for which the displacement is 3.6%. In the case of `CC1(C)NC(=S)N(c2ccccc2)N1` it was -3%; in that of `COc1ccccc1/C=C1\SC(=S)N(CCC(=O)OCCN(C)C)C1=O`, 11.8%; in that of `C=CCn1c(=N)n(CC(O)C(C)(C)C)c2ccccc21` (stereo unspecified), -4.7%. In the case of `COc1ccc(C(=O)CSc2nnc(-c3ccco3)n2-c2ccccc2)cc1` it was -7.3%; in that of `CCOc1cc(C(=O)Nc2ccc(F)cc2)cc(OCC)c1OCC`, 11.9%. For `Cc1cccc([N+](=O)[O-])c1N=Cc1ccc(N(C)C)cc1` the value was -4.5%. With `CCc1nnc(NS(=O)(=O)c2ccc(NS(=O)(=O)c3ccc4c(c3)C(=O)c3ccccc3-4)cc2)s1`, the displacement amounted to 14.7%. As to `COc1ccc(C(=O)O)cc1NC(=O)CC(=O)c1ccc([N+](=O)[O-])cc1`, the displacement was -15%.

Turning to `Oc1ccc(/C=N/Nc2nc(N3CCOCC3)nc(N3CCOCC3)n2)c(O)c1`, the displacement stood at 13%. In the case of `Cc1ccc(N/N=C/c2c(C)[nH]n(-c3ccc(C)c(C)c3)c2=O)c(C)c1` it was 1.2%. In the case of `COc1ccc([N+](=O)[O-])cc1/C=C1/SC(=S)N(CC(=O)O)C1=O` it was 9.4%; in that of `O=C1c2ccccc2C(=O)C12OC(c1ccc(Br)cc1)C1(C(=O)c3ccccc3C1=O)C2c1ccc(F)cc1` (stereo unspecified), 2.6%. Turning to `Cc1ccc(-n2c(SCC(=O)Nc3ccccc3)nc(O)c(Cc3ccccc3)c2=O)cc1`, the displacement is -6%. As to `COCCOC(=O)c1ccc(NC(=O)COc2cccc(C)c2)cc1`, the displacement was -7.7%. Turning to `Cc1ccc(Cl)cc1NC(=O)c1cc(Cl)ccc1Cl`, the displacement is -0.8%. In the case of `Cc1cc(-c2nc3ccccc3[nH]2)c2ccccc2n1` it was -8% and 12.7%; in that of `O=C(/C=C/c1ccccc1Cl)n1cnc2ccccc21`, 2.8%; in that of `Cc1ccc(C(=O)c2ccc(Br)cc2)cc1S(N)(=O)=O`, 13%. For `O=c1c(-c2ccc(Cl)cc2Cl)coc2c(CN3CCCCCC3)c(O)ccc12` the value was -6.1%; for `O=C(N(c1cccc(C(F)(F)F)c1)C1C=CS(=O)(=O)C1)C(F)(F)F` (stereo unspecified), 14.6%; for `Cc1ccc(N2C(=O)/C(=C/c3ccc(OCc4cccc(C(=O)O)c4)cc3)C(=O)NC2=S)cc1`, 11.7%. Take `Cc1ccc(C(=O)CSc2nc(N)c(C#N)c(-c3ccc(O)cc3)c2C#N)cc1`: the displacement was 2.3%.
